Test results as given in the supplement of paper PMC8728848.
The list shows a part of the results.

Experiments:
Assay in all cases: glycan array binding signal (z-score within array); higher = stronger binding
Conditions in all cases: glycan notation: IUPAC condensed, linker removed
[1] = target: Neu5Ac(a2-3)Gal(b1-3)[Neu5Ac(a2-6)]GalNAc
Procedure, shortened: (§1)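 Glycan array data came from 3228 arrays in the Consortium for Functional Glycomics database, and only arrays with an available protein sequence were kept. Glycan names were put into IUPAC-condensed notation, and columns mapping to the same glycan were averaged. The binding signal is a within-array Z-score, averaged across arrays of one protein sequence run at different concentrations or buffers and across linkers. A negative Z-score can be read as non-binding.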

[2] = target: Neu5Ac(a2-3)Gal(b1-4)Glc
Procedure, shortened: as §1

[3] = target: Neu5Ac(a2-3)Gal(b1-4)GlcNAc
Procedure, shortened: as §1

[4] = target: Neu5Ac(a2-3)Gal(b1-4)GlcNAc(b1-2)Man(a1-3)[GlcNAc(b1-2)Man(b1-4)GlcNAc(b1-2)Man(a1-6)]Man(b1-4)GlcNAc(b1-4)GlcNAc
Procedure, shortened: as §1

[5] = target: Neu5Ac(a2-3)Gal(b1-4)GlcNAc(b1-2)Man(a1-3)[Neu5Ac(a2-6)Gal(b1-4)GlcNAc(b1-2)Man(a1-6)]Man(b1-4)GlcNAc(b1-4)GlcNAc
Procedure, shortened: as §1

[6] = target: Neu5Ac(a2-3)Gal(b1-4)GlcNAc(b1-3)Gal(b1-3)GlcNAc
Procedure, shortened: as §1

[7] = target: Neu5Ac(a2-3)Gal(b1-4)GlcNAc(b1-3)Gal(b1-4)GlcNAc
Procedure, shortened: as §1

[8] = target: Neu5Ac(a2-3)Gal(b1-4)GlcNAc(b1-3)Gal(b1-4)GlcNAc(b1-3)Gal(b1-4)GlcNAc
Procedure, shortened: as §1

[9] = target: Neu5Ac(a2-3)Gal(b1-4)GlcNAc(b1-3)Gal(b1-4)[Fuc(a1-3)]GlcNAc
Procedure, shortened: as §1

[10] = target: Neu5Ac(a2-3)Gal(b1-4)GlcNAc(b1-3)GalNAc
Procedure, shortened: as §1

[11] = target: Neu5Ac(a2-3)Gal(b1-4)GlcNAc(b1-6)[Gal(b1-3)]GalNAc
Procedure, shortened: as §1

[12] = target: Neu5Ac(a2-3)Gal(b1-4)GlcNAc(b1-6)[Neu5Ac(a2-3)Gal(b1-3)]GalNAc
Procedure, shortened: as §1

[13] = target: Neu5Ac(a2-3)Gal(b1-4)GlcNAc6S
Procedure, shortened: as §1

[14] = target: Neu5Ac(a2-3)Gal(b1-4)[Fuc(a1-3)]GlcNAc
Procedure, shortened: as §1

[15] = target: Neu5Ac(a2-3)Gal(b1-4)[Fuc(a1-3)]GlcNAc(b1-3)Gal
Procedure, shortened: as §1

[16] = target: Neu5Ac(a2-3)Gal(b1-4)[Fuc(a1-3)]GlcNAc(b1-3)Gal(b1-4)GlcNAc
Procedure, shortened: as §1

[17] = target: Neu5Ac(a2-3)Gal(b1-4)[Fuc(a1-3)]GlcNAc(b1-3)Gal(b1-4)[Fuc(a1-3)]GlcNAc(b1-3)Gal(b1-4)[Fuc(a1-3)]GlcNAc
Procedure, shortened: as §1

[18] = target: Neu5Ac(a2-3)Gal(b1-4)[Fuc(a1-3)]GlcNAc(b1-3)GalNAc
Procedure, shortened: as §1

[19] = target: Neu5Ac(a2-3)Gal(b1-4)[Fuc(a1-3)]GlcNAc(b1-6)[Gal(b1-3)]GalNAc
Procedure, shortened: as §1

[20] = target: Neu5Ac(a2-3)Gal(b1-4)[Fuc(a1-3)]GlcNAc(b1-6)[Neu5Ac(a2-3)Gal(b1-3)]GalNAc
Procedure, shortened: as §1

[21] = target: Neu5Ac(a2-3)Gal(b1-4)[Fuc(a1-3)]GlcNAc6S
Procedure, shortened: as §1

[22] = target: Neu5Ac(a2-3)Gal6S(b1-4)GlcNAc
Procedure, shortened: as §1

[23] = target: Neu5Ac(a2-3)Gal6S(b1-4)[Fuc(a1-3)]GlcNAc
Procedure, shortened: as §1

[24] = target: Neu5Ac(a2-3)GalNAc
Procedure, shortened: as §1

[25] = target: Neu5Ac(a2-3)GalNAc(b1-4)GlcNAc
Procedure, shortened: as §1

[26] = target: Neu5Ac(a2-3)[GalNAc(b1-4)]Gal(b1-4)Glc
Procedure, shortened: as §1

[27] = target: Neu5Ac(a2-3)[GalNAc(b1-4)]Gal(b1-4)GlcNAc
Procedure, shortened: as §1

[28] = target: Neu5Ac(a2-3)[GalNAc(b1-4)]Gal(b1-4)GlcNAc(b1-3)GalNAc
Procedure, shortened: as §1

[29] = target: Neu5Ac(a2-3)[Neu5Ac(a2-6)]GalNAc
Procedure, shortened: as §1

[30] = target: Neu5Ac(a2-6)Gal
Procedure, shortened: as §1

[31] = target: Neu5Ac(a2-6)Gal(b1-4)Glc
Procedure, shortened: as §1

[32] = target: Neu5Ac(a2-6)Gal(b1-4)GlcNAc
Procedure, shortened: as §1

[33] = target: Neu5Ac(a2-6)Gal(b1-4)GlcNAc(b1-2)Man(a1-3)Man(b1-4)GlcNAc(b1-4)GlcNAc
Procedure, shortened: as §1

[34] = target: Neu5Ac(a2-6)Gal(b1-4)GlcNAc(b1-2)Man(a1-3)[Gal(b1-4)GlcNAc(b1-2)Man(a1-6)]Man(b1-4)GlcNAc(b1-4)GlcNAc
Procedure, shortened: as §1

[35] = target: Neu5Ac(a2-6)Gal(b1-4)GlcNAc(b1-2)Man(a1-3)[GlcNAc(b1-2)Man(a1-6)]Man(b1-4)GlcNAc(b1-4)GlcNAc
Procedure, shortened: as §1

[36] = target: Neu5Ac(a2-6)Gal(b1-4)GlcNAc(b1-2)Man(a1-3)[GlcNAc(b1-2)Man(b1-4)GlcNAc(b1-2)Man(a1-6)]Man(b1-4)GlcNAc(b1-4)GlcNAc
Procedure, shortened: as §1

B1: Tachylectin-2 (Tachypleus tridentatus), TAL2_TACTR (protein)
chain: VGGESMLRGVYQDKFYQGTYPQNKNDNWLARATLIGKGGWSNFKFLFLSPGGELYGVLNDKIYKGTPPTHDNDNWMGRAKKIGNGGWNQFQFLFFDPNGYLYAVSKDKLYKASPPQSDTDNWIARATEIGSGGWSGFKFLFFHPNGYLYAVHGQQFYKALPPVSNQDNWLARATKIGQGGWDTFKFLFFSSVGTLFGVQGGKFYEDYPPSYAHDNWLARAKLIGNGGWDDFRFLFF
glycan array binding signal (z-score) [1]: -0.321
glycan array binding signal (z-score) [2]: -0.324
glycan array binding signal (z-score) [3]: -0.374
glycan array binding signal (z-score) [4]: -0.298
glycan array binding signal (z-score) [5]: -0.326
glycan array binding signal (z-score) [6]: -0.256
glycan array binding signal (z-score) [7]: -0.086
glycan array binding signal (z-score) [8]: -0.366
glycan array binding signal (z-score) [9]: -0.429
glycan array binding signal (z-score) [10]: -0.295
glycan array binding signal (z-score) [11]: -0.037
glycan array binding signal (z-score) [12]: -0.197
glycan array binding signal (z-score) [13]: -0.232
glycan array binding signal (z-score) [14]: -0.257
glycan array binding signal (z-score) [15]: -0.301
glycan array binding signal (z-score) [16]: -0.31
glycan array binding signal (z-score) [17]: -0.124
glycan array binding signal (z-score) [18]: -0.266
glycan array binding signal (z-score) [19]: -0.301
glycan array binding signal (z-score) [20]: -0.291
glycan array binding signal (z-score) [21]: -0.281
glycan array binding signal (z-score) [22]: -0.198
glycan array binding signal (z-score) [23]: -0.328
glycan array binding signal (z-score) [24]: -0.361
glycan array binding signal (z-score) [25]: -0.263
glycan array binding signal (z-score) [26]: -0.428
glycan array binding signal (z-score) [27]: -0.385
glycan array binding signal (z-score) [28]: -0.284
glycan array binding signal (z-score) [29]: -0.11
glycan array binding signal (z-score) [30]: -0.213
glycan array binding signal (z-score) [31]: -0.278
glycan array binding signal (z-score) [32]: -0.176
glycan array binding signal (z-score) [33]: -0.293
glycan array binding signal (z-score) [34]: -0.358
glycan array binding signal (z-score) [35]: -0.363
glycan array binding signal (z-score) [36]: -0.339
